The list shows a part of the results. Sequences were assembled here from the parent chain. Inactive controls read about 0.05.
B1: TEV protease; numbered along this chain (parent)
chain: MGESLFKGPRDYNPISSSICHLTNESDGHTTSLYGIGFGPFIITNKHLFRRNNGTLVVQSLHGVFKVKDTTTLQQHLVDGRDMIIIRMPKDFPPFPQKLKFREPQREERICLVTTNFQTKSMSSMVSDTSCTFPSGDGIFWKHWIQTKDGQCGSPLVSTRDGFIVGIHSASNFTNTNNYFTSVPKNFMELLTNQEAQQWVSGWRLNADSVLWGGHKVFMVKPEEPFQPVKEATQL

Variants of: B1
Assay: raw area under fraction-flipped curve 0-4 h after induction (AUC4h, not background-subtracted), DNA-recorder readout of cleavage of the substrate (dimensionless); higher = more cleavage of the substrate by the protease variant
Conditions: temperature: 34 °C; time window: 0-4 h after rhamnose induction
Protocol: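 In vivo DNA recorder in E. coli TOP10(DE3) ΔrhaA at 34 °C. Each TEVp single-site mutant (parent TEVp 0) is paired with a single-site variant of the 7-mer TEVs (canonical ENLYFQ|S). The substrate sits between flexible linkers in a Bxb1-sfGFP-TEVs-SsrA fusion, so cleavage stabilises Bxb1 and speeds flipping of a recombination array, read by NGS. The value is the raw area under the fraction-flipped curve over 0-4 h after rhamnose induction (AUC4h), with ≥20 reads per time point. It is not background-subtracted; inactive controls average about 0.047.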
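Note: Bxb1 expression induced with 0.2% (w/v) L-rhamnose at OD600 near 0.5, cultures sampled hourly, flipped fraction per protease–substrate barcode pair counted by paired-end Illumina sequencing.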

Variant	area with substrate ENAYFQS	area with substrate ENCYFQS	area with substrate ENDYFQS	area with substrate ENKYFQS	area with substrate ENQYFQS	area with substrate ENSYFQS	area with substrate ENTYFQS	area with substrate ENVYFQS	area with substrate ENWYFQS	area with substrate ENEYFQS	area with substrate ENGYFQS	area with substrate ENHYFQS	area with substrate ENIYFQS	area with substrate ENMYFQS	area with substrate ENNYFQS	area with substrate ENRYFQS	area with substrate ENYYFQS	area with substrate ENFYFQS	area with substrate ENPYFQS
MGESLFKGPRDYNPISSSICHLTNESDGHTTSLYGIGFGPFIITNKHLFRRNNGTLVVQSLHGVFKVKDTTTLQQHLVDGRDMIIIRMPKDFPPFPQKLKFREPQREERICLVTTNFQTKSMSSMTSDTSCTFPSGDGIFWKHWIQTKDGQCGSPLVSTRDGFIVGIHSASNFTNTNNYFTSVPKNFMELLTNQEAQQWVSGWRLNADSVLWGGHKVFMVKPEEPFQPVKEATQL [V126T]	0.0696	0.0706	0.0781	0.0779	0.0643	0.0604	0.0673	0.0841	0.0348	–	–	–	–	–	–	–	–	–	–
MGESLFKGPRDYNPISSSICHLTNESDGHTTSLYGIGFGPFIITNKHLFRRNNGTLVVQSLHGVFKVKDTTTLQQHLVDGRDMIIIRMPKDFPPFPQKLKFREPQREERICLVTTNFQTKSMSSMVTDTSCTFPSGDGIFWKHWIQTKDGQCGSPLVSTRDGFIVGIHSASNFTNTNNYFTSVPKNFMELLTNQEAQQWVSGWRLNADSVLWGGHKVFMVKPEEPFQPVKEATQL [S127T]	0.0681	–	0.0514	0.0629	0.0562	0.0716	0.0758	0.0855	0.059	0.0574	0.0603	0.0301	0.102	0.0975	0.0539	0.0619	0.0471	–	–
MGESLFKGPRDYNPISSSICHLTNESDGHTTSLYGIGFGPFIITNKHLFRRNNGTLVVQSLHGVFKVKDTTTLQQHLVDGRDMIIIRMPKDFPPFPQKLKFREPQREERICLVTTNFQTKSMSSMVSQTSCTFPSGDGIFWKHWIQTKDGQCGSPLVSTRDGFIVGIHSASNFTNTNNYFTSVPKNFMELLTNQEAQQWVSGWRLNADSVLWGGHKVFMVKPEEPFQPVKEATQL [D128Q]	0.0501	0.074	0.0639	0.0648	0.0654	0.0599	–	0.102	0.053	–	0.0502	0.0682	0.137	0.0991	0.0525	0.0361	0.0529	0.0587	0.0577
MGESLFKGPRDYNPISSSICHLTNESDGHTTSLYGIGFGPFIITNKHLFRRNNGTLVVQSLHGVFKVKDTTTLQQHLVDGRDMIIIRMPKDFPPFPQKLKFREPQREERICLVTTNFQTKSMSSMVSDTSCDFPSGDGIFWKHWIQTKDGQCGSPLVSTRDGFIVGIHSASNFTNTNNYFTSVPKNFMELLTNQEAQQWVSGWRLNADSVLWGGHKVFMVKPEEPFQPVKEATQL [T132D]	0.0548	0.0515	0.0542	0.0614	0.0605	0.0525	–	0.0524	–	0.0596	0.0519	0.0501	–	0.0642	0.0596	0.0555	0.0506	0.0551	0.0366
MGESLFKGPRDYNPISSSICHLTNESDGHTTSLYGIGFGPFIITNKHLFRRNNGTLVVQSLHGVFKVKDTTTLQQHLVDGRDMIIIRMPKDFPPFPQKLKFREPQREERICLVTTNFQTKSMSSMVSDTSCMFPSGDGIFWKHWIQTKDGQCGSPLVSTRDGFIVGIHSASNFTNTNNYFTSVPKNFMELLTNQEAQQWVSGWRLNADSVLWGGHKVFMVKPEEPFQPVKEATQL [T132M]	0.0593	0.0532	0.0527	–	0.0705	0.058	0.0696	–	–	0.058	0.0712	0.0522	0.124	0.0783	0.0613	0.054	0.0628	0.0455	0.0625
MGESLFKGPRDYNPISSSICHLTNESDGHTTSLYGIGFGPFIITNKHLFRRNNGTLVVQSLHGVFKVKDTTTLQQHLVDGRDMIIIRMPKDFPPFPQKLKFREPQREERICLVTTNFQTKSMSSMVSDTSCTFCSGDGIFWKHWIQTKDGQCGSPLVSTRDGFIVGIHSASNFTNTNNYFTSVPKNFMELLTNQEAQQWVSGWRLNADSVLWGGHKVFMVKPEEPFQPVKEATQL [P134C]	0.062	0.06	0.0595	–	0.0572	0.0591	–	0.0682	0.0618	0.0506	0.0516	0.0528	0.094	0.0808	0.0579	0.0673	0.0565	0.0885	0.0578
MGESLFKGPRDYNPISSSICHLTNESDGHTTSLYGIGFGPFIITNKHLFRRNNGTLVVQSLHGVFKVKDTTTLQQHLVDGRDMIIIRMPKDFPPFPQKLKFREPQREERICLVTTNFQTKSMSSMVSDTSCTFTSGDGIFWKHWIQTKDGQCGSPLVSTRDGFIVGIHSASNFTNTNNYFTSVPKNFMELLTNQEAQQWVSGWRLNADSVLWGGHKVFMVKPEEPFQPVKEATQL [P134T]	0.055	–	–	0.0676	0.0572	0.0744	0.0508	–	–	0.0645	0.0602	0.0748	–	–	0.0701	–	–	0.0595	–
MGESLFKGPRDYNPISSSICHLTNESDGHTTSLYGIGFGPFIITNKHLFRRNNGTLVVQSLHGVFKVKDTTTLQQHLVDGRDMIIIRMPKDFPPFPQKLKFREPQREERICLVTTNFQTKSMSSMVSDTSCTFYSGDGIFWKHWIQTKDGQCGSPLVSTRDGFIVGIHSASNFTNTNNYFTSVPKNFMELLTNQEAQQWVSGWRLNADSVLWGGHKVFMVKPEEPFQPVKEATQL [P134Y]	0.0615	0.079	0.0648	0.0519	0.0475	0.0643	0.0659	0.042	–	0.0562	0.0603	0.0692	0.0639	0.0923	0.0613	0.0557	0.0683	0.0649	0.0582
MGESLFKGPRDYNPISSSICHLTNESDGHTTSLYGIGFGPFIITNKHLFRRNNGTLVVQSLHGVFKVKDTTTLQQHLVDGRDMIIIRMPKDFPPFPQKLKFREPQREERICLVTTNFQTKSMSSMVSDTSCTFPSADGIFWKHWIQTKDGQCGSPLVSTRDGFIVGIHSASNFTNTNNYFTSVPKNFMELLTNQEAQQWVSGWRLNADSVLWGGHKVFMVKPEEPFQPVKEATQL [G136A]	0.0492	0.0594	0.066	0.058	0.0619	0.0616	–	0.0695	–	0.0513	–	–	–	–	–	0.0606	–	–	–
MGESLFKGPRDYNPISSSICHLTNESDGHTTSLYGIGFGPFIITNKHLFRRNNGTLVVQSLHGVFKVKDTTTLQQHLVDGRDMIIIRMPKDFPPFPQKLKFREPQREERICLVTTNFQTKSMSSMVSDTSCTFPSEDGIFWKHWIQTKDGQCGSPLVSTRDGFIVGIHSASNFTNTNNYFTSVPKNFMELLTNQEAQQWVSGWRLNADSVLWGGHKVFMVKPEEPFQPVKEATQL [G136E]	0.0435	0.0647	0.0703	0.0564	0.0507	0.049	0.0677	0.0729	–	0.0322	0.0339	–	–	–	0.0649	0.0405	0.054	0.0635	0.056
MGESLFKGPRDYNPISSSICHLTNESDGHTTSLYGIGFGPFIITNKHLFRRNNGTLVVQSLHGVFKVKDTTTLQQHLVDGRDMIIIRMPKDFPPFPQKLKFREPQREERICLVTTNFQTKSMSSMVSDTSCTFPSFDGIFWKHWIQTKDGQCGSPLVSTRDGFIVGIHSASNFTNTNNYFTSVPKNFMELLTNQEAQQWVSGWRLNADSVLWGGHKVFMVKPEEPFQPVKEATQL [G136F]	0.0599	0.0741	0.074	0.0662	0.0626	0.0633	–	0.0875	0.0275	0.0548	0.0747	0.0609	0.0987	–	–	0.0593	0.0476	0.102	0.072
MGESLFKGPRDYNPISSSICHLTNESDGHTTSLYGIGFGPFIITNKHLFRRNNGTLVVQSLHGVFKVKDTTTLQQHLVDGRDMIIIRMPKDFPPFPQKLKFREPQREERICLVTTNFQTKSMSSMVSDTSCTFPSKDGIFWKHWIQTKDGQCGSPLVSTRDGFIVGIHSASNFTNTNNYFTSVPKNFMELLTNQEAQQWVSGWRLNADSVLWGGHKVFMVKPEEPFQPVKEATQL [G136K]	0.07	0.0584	0.0665	–	–	–	0.0478	0.0611	0.0348	0.0571	0.0769	–	0.0752	–	0.0724	–	–	0.0642	–
MGESLFKGPRDYNPISSSICHLTNESDGHTTSLYGIGFGPFIITNKHLFRRNNGTLVVQSLHGVFKVKDTTTLQQHLVDGRDMIIIRMPKDFPPFPQKLKFREPQREERICLVTTNFQTKSMSSMVSDTSCTFPSGDHIFWKHWIQTKDGQCGSPLVSTRDGFIVGIHSASNFTNTNNYFTSVPKNFMELLTNQEAQQWVSGWRLNADSVLWGGHKVFMVKPEEPFQPVKEATQL [G138H]	0.0507	0.0621	–	–	–	–	0.0635	–	–	0.0512	0.0636	–	–	–	–	–	–	–	0.0624
MGESLFKGPRDYNPISSSICHLTNESDGHTTSLYGIGFGPFIITNKHLFRRNNGTLVVQSLHGVFKVKDTTTLQQHLVDGRDMIIIRMPKDFPPFPQKLKFREPQREERICLVTTNFQTKSMSSMVSDTSCTFPSGDRIFWKHWIQTKDGQCGSPLVSTRDGFIVGIHSASNFTNTNNYFTSVPKNFMELLTNQEAQQWVSGWRLNADSVLWGGHKVFMVKPEEPFQPVKEATQL [G138R]	0.0647	–	–	0.0602	0.0545	–	0.0774	–	–	0.0613	0.0612	–	–	–	0.046	0.0528	–	0.0504	0.0556
MGESLFKGPRDYNPISSSICHLTNESDGHTTSLYGIGFGPFIITNKHLFRRNNGTLVVQSLHGVFKVKDTTTLQQHLVDGRDMIIIRMPKDFPPFPQKLKFREPQREERICLVTTNFQTKSMSSMVSDTSCTFPSGDGIFSKHWIQTKDGQCGSPLVSTRDGFIVGIHSASNFTNTNNYFTSVPKNFMELLTNQEAQQWVSGWRLNADSVLWGGHKVFMVKPEEPFQPVKEATQL [W141S]	0.0421	0.0574	–	0.0565	0.0524	0.0533	0.0452	0.0489	–	0.0484	0.0596	0.0604	–	–	0.0521	0.0417	–	0.0581	0.0524
MGESLFKGPRDYNPISSSICHLTNESDGHTTSLYGIGFGPFIITNKHLFRRNNGTLVVQSLHGVFKVKDTTTLQQHLVDGRDMIIIRMPKDFPPFPQKLKFREPQREERICLVTTNFQTKSMSSMVSDTSCTFPSGDGIFWYHWIQTKDGQCGSPLVSTRDGFIVGIHSASNFTNTNNYFTSVPKNFMELLTNQEAQQWVSGWRLNADSVLWGGHKVFMVKPEEPFQPVKEATQL [K142Y]	0.0683	0.0532	0.0689	–	0.0615	0.0802	0.0689	0.0943	–	0.06	0.059	–	0.121	0.0931	0.0467	–	–	0.0575	–
MGESLFKGPRDYNPISSSICHLTNESDGHTTSLYGIGFGPFIITNKHLFRRNNGTLVVQSLHGVFKVKDTTTLQQHLVDGRDMIIIRMPKDFPPFPQKLKFREPQREERICLVTTNFQTKSMSSMVSDTSCTFPSGDGIFWKHDIQTKDGQCGSPLVSTRDGFIVGIHSASNFTNTNNYFTSVPKNFMELLTNQEAQQWVSGWRLNADSVLWGGHKVFMVKPEEPFQPVKEATQL [W144D]	0.0652	–	0.0564	0.0922	0.0624	–	0.0523	0.0582	–	0.0676	0.0655	0.059	–	0.078	0.0726	–	–	–	0.0873
MGESLFKGPRDYNPISSSICHLTNESDGHTTSLYGIGFGPFIITNKHLFRRNNGTLVVQSLHGVFKVKDTTTLQQHLVDGRDMIIIRMPKDFPPFPQKLKFREPQREERICLVTTNFQTKSMSSMVSDTSCTFPSGDGIFWKHWEQTKDGQCGSPLVSTRDGFIVGIHSASNFTNTNNYFTSVPKNFMELLTNQEAQQWVSGWRLNADSVLWGGHKVFMVKPEEPFQPVKEATQL [I145E]	0.0474	–	0.0518	–	–	0.0616	–	0.0694	–	–	0.0503	–	–	–	0.05	–	–	–	–

Reference: the supplement of paper PMC12217912
